# Measurements: paper PMC4336329 (PLoS ONE, 2015)
# About 14,000 (4.5%) of roughly 310,000 compounds showed an effect of 50% or more. The effect is printed as a negative number. The list shows a part of the results.
# Target: human ether-à-go-go-related gene (hERG) potassium channel (human, UniProt Q12809)
# Assay: primary screen, population patch clamp on CHO cells stably expressing hERG
# 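Note: peak tail current of the secondary pulse compared with the same well before compound.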
# Chain of human ether-à-go-go-related gene (hERG) potassium channel (Q12809 whole entry, looked up): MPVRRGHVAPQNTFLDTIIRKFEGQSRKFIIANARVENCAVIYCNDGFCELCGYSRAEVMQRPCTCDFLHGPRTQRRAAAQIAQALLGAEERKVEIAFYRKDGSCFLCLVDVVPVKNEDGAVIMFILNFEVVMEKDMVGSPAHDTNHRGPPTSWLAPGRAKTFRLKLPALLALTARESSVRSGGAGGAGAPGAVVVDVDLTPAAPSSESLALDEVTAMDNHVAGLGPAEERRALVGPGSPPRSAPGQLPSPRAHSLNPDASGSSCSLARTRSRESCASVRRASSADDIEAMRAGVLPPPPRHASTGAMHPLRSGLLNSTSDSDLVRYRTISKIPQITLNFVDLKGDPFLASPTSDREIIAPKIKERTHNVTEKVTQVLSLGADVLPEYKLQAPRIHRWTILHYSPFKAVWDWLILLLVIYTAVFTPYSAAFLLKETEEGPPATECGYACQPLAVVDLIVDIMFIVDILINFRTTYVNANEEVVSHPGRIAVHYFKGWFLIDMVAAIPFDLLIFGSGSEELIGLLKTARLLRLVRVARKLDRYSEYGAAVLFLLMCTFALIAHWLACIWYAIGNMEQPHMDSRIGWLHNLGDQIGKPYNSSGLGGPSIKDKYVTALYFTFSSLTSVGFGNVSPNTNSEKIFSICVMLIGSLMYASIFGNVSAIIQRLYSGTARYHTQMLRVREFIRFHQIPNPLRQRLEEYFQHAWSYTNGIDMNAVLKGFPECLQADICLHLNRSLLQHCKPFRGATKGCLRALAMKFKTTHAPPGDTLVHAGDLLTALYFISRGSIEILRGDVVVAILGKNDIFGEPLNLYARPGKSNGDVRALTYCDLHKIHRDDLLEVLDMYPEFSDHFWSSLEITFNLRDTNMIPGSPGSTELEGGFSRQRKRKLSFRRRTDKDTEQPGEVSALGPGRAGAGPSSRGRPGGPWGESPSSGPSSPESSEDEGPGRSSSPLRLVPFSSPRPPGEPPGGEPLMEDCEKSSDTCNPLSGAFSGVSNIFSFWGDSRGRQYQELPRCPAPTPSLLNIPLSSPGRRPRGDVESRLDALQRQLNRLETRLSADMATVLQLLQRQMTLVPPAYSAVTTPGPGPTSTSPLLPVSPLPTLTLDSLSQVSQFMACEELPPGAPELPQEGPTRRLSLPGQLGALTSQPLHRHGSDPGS
row,SMILES,"hERG current change (%, negative = inhibition) at 10uM"
1,O=C(Nc1ccc(C(=O)O)cc1)/C(=C\C=C\c1ccccc1)NC(=O)c1ccccc1Br,1.27%
2,COCCCN(C(=O)CSCc1c(C)noc1C)c1c(N)n(Cc2ccccc2)c(=O)[nH]c1=O,16.5%
3,CCCCCCC(=O)N(O)C1CC(=O)N(c2ccc(Br)cc2)C1=O (stereo not shown),2.86%
4,O=C(NNC(=O)c1c(O)c2ccccc2[nH]c1=O)c1ccccc1Br,-6.94%
5,COc1ccc(CN(C)Cc2ccccc2)c(OC)c1OC,-16.9%
6,COc1ccc(Cl)cc1NC(=O)c1cccnc1,11%
7,O=C(Nc1ccc2c(c1)OCO2)c1ccc(Br)c(S(=O)(=O)N2CCCC2)c1,11.1%
8,Cn1c(=O)c2c(nc(CN3CCN(C(=O)c4ccco4)CC3)n2Cc2cccc(Cl)c2)n(C)c1=O,-60.1%
9,COc1ccc(OC)c(NC(=O)C2CC(/C=C/c3ccccc3)=NO2)c1 (stereo not shown),20.6%
10,Cn1c(=O)cc(SCC(=O)N2CCN(c3ccccn3)CC2)c2ccccc21,-36.9%
11,CC(=O)N1CCN(C(=O)c2cc(-c3cccc4ccccc34)nc3ccccc23)CC1,-28.9%
12,CCNC(=S)N/N=C/c1ccc(-c2ccccc2)o1,3.43%
13,Cc1ccccc1C(=O)NNC(=S)NC(=O)c1cccs1,23.4%
14,O=C(CNS(=O)(=O)c1ccccc1)N/N=C\c1ccc(Cl)cc1,-11%
15,Cc1cc(NC(=O)CCNS(=O)(=O)c2ccc3[nH]c(=O)oc3c2)ccc1Br,17.9%
16,CO.COc1ccc(Nc2nc(Nc3ccc(OC)cc3)nc(SC3=NCCS3)n2)cc1,14.2%
17,Cc1ccc(/C=C2\SC(=S)N(CC3CCCO3)C2=O)o1 (stereo not shown),-4.54%
18,CC(C)Cc1nc2oc3c(=O)[nH]cnc3c2c2c1CCCC2,-6.24%
19,COCCN1Cc2cc3cc(C)ccc3nc2SC1=Nc1ccc(OC)cc1,7.73%
20,O=C1CCCN1CC(CN1CCOCC1)Sc1nnnn1-c1ccccc1 (stereo not shown),-7.49%
21,CCOC(=O)c1c(C)[nH]c(C)c1C(=O)COC(=O)c1cc2ccccc2cc1OC,0.924%
22,CCC1CCCCN1C/C=C/c1ccccc1[N+](=O)[O-] (stereo not shown),-60.2%
23,Nc1ccccc1C(=O)NCc1ccc(Cl)cc1,-5.14%
24,O=C(Nc1cc(S(=O)(=O)N2CCOCC2)ccc1N1CCOCC1)c1cc(=O)[nH]c2ccccc12,6.32%
25,CCCCCCc1cc2cc(S(=O)(=O)c3ccc(Cl)cc3)c(=O)oc2cc1O,12.9%
26,Cc1nc(-c2ccc(NC(=O)c3ccc(Br)o3)cc2)cs1,4.44%
27,COc1cccc(CNC(=O)c2cc(C)nc3ccccc23)c1,4.44%
28,COC(=O)C(O)(c1c(C)[nH]n(-c2ccccc2)c1=O)C(F)(F)F (stereo not shown),23%

row,SMILES,"hERG current change (%, negative = inhibition) at 10uM"
1,CC1(c2nnc(-c3ccc(Cl)cc3)o2)CC(c2ccc([N+](=O)[O-])cc2)=NO1 (stereo not shown),-15.6%
2,COc1ccccc1NC(=O)CNC(c1ccccc1)c1ccccc1,1.36%
3,COc1ccccc1N1CCN(C(=O)Nc2ccc([N+](=O)[O-])cc2)CC1,-52.4%
4,Cc1c(Cc2ccccc2)c(=O)oc2cc(OCC(=O)N3CCC(C(=O)O)CC3)ccc12,6.24%
5,CCOC(=O)CC1=C(C(=O)OCC)C2(C(=O)N1)C(C(=O)OC)=C(N)Oc1ccccc12 (stereo not shown),-7.95%
6,O=C(OCC(=O)N1CCCC1)c1ccc(S(=O)(=O)N2CCOCC2)cc1,15.7%
7,NC(=S)N/N=C/c1ccc2ccccc2c1,18.1%
8,CCOCCOC(=O)c1[nH]c2c(c1C)C(=O)CC(c1ccccc1)C2 (stereo not shown),7.35%
9,CC(=O)OCC1=C(C(=O)O)N2C(=O)C(NC(=O)c3ccc(COc4ccc(Cl)cc4)o3)C2SC1 (stereo not shown),-12%
10,NC(N)=NS(=O)(=O)c1ccc(NC(=S)NC(=O)Cc2ccc(Cl)cc2)cc1,28.8%
11,S=C(NCc1ccco1)N1CCC(c2nc3ccccc3o2)CC1,-21%
12,CCCCN1CC(=O)N2[C@H]3c4ccc(OC)cc4OC[C@@H]3[C@H](c3ccccc3)[C@]2(C)C1=O,-8.54%
13,COc1ccc(NC(=O)C2C3CCC(O3)C2C(=O)O)c(OC)c1 (stereo not shown),23.1%
14,CCc1nc2c(C#N)c(-c3ccc(Cl)cc3)ccn2n1,-16.6%
15,Cc1ccccc1NC(=O)C1Cc2ccccc2CN1C(=O)OCc1ccccc1 (stereo not shown),-31.2%
16,COc1ccc(-c2n[nH]c(=S)n2-c2ccc3c(c2)OCCO3)cc1,7.68%
17,CCOc1ccc(N2C(=O)Nc3ccccc3C2(O)C(=O)NCc2ccco2)cc1 (stereo not shown),-3.71%
18,Cc1ccc(S(=O)(=O)n2c(N)nc3ccccc32)cc1,10.1%
19,N#C/C(=C/c1ccc(N2CCOCC2)o1)c1ccc(Cl)cc1,0.0249%
20,O=c1c2cnn(-c3ccccc3)c2ncn1Cc1ccccn1,3.09%
21,O=C(NCCCCCCNC(=O)OC1CCS(=O)(=O)C1)OC1CCS(=O)(=O)C1 (stereo not shown),11%
22,CC1=C(C(=O)OC(C)C)C(c2ccccn2)n2ncnc2N1 (stereo not shown),1.52%
23,COc1cccc(NC(=O)COc2ccc(Br)c(C)c2)c1,25.8%
24,CN(Cc1ccc(F)cc1)S(=O)(=O)c1nnc(NC(=O)c2ccccc2Br)s1,-15.9%
25,COC(=O)CNC(=O)c1cn(CC(C)C)c(=O)c2cc(OC)c(OC)cc12,-9.4%
26,COc1ccccc1C(=O)Nc1ccccc1N1CCCCC1,-22.4%
27,CC(C)(C)C1CCc2[nH]nc(C(=O)O)c2C1 (stereo not shown),16%
